Data as given in patent US20090088461A1, “Methods of Treating or Preventing Cardiac Disease Associated With a High Fat Diet” (Synvista Therapeutics, Inc., priority 2007, published 2009).
Some values that stand alone complete this part of the results.

Tested on: superoxide production in left ventricular homogenates (gp91^phox, RAC-1, heme oxygenase)
Experiment: Assessment of superoxide production in HF-fed mice
Format: in vivo
Settings: HF diet, real time RT-PCR
From the text: Adult (8-week-old) male […] mice (Precinct Animal Centre, Melbourne, Australia) and RAGE knockout (KO) mice^17 ([…] al., J Clin Invest. 113:1641-50, 2004) were housed in a temperature-controlled room on a 12-h light-dark cycle. Mice were placed on either a standard diet (AIN-93G; Specialty feeds, Perth AUS; n=10/group) or a high fat (HF) diet formulated to mimic a “Western fast food diet”, (SF05-031, Specialty Feeds; n=10). Both diets contained the same vitamin and calorie content. […] Animals receiving a HF diet were further randomized to receive alagebrium chloride at a dose of 1 mg/kg/day delivered by oral gavage. All groups were followed for 16 weeks. The production and accumulation of superoxide and other ROS is a key mediator of […] injury and cellular dysfunction associated with high fat feeding^5 (Boudina and Abel, Circulation 115:3213-23, 2007). […] Fresh homogenates were then divided to determine superoxide production in the presence of 125 μM NADH and 30 μM of the NADPH oxidase inhibitor, diphenylene iodinium (designated NADH-dependent superoxide production), and superoxide production in the presence of 125 μM NADPH and 30 μM of the respiratory chain inhibitor, rotenone (designated NADPH-dependent superoxide production). This latter activity was not inhibited by L-N^G-Nitroarginine or allopurinol. Each of the samples was processed in triplicate. Following incubation for 60 min at 37° C., before the rate of superoxide anion formation was determined by the addition of 3.8 μM lucigenin (bis-N-methylacridinium nitrate). […] The expression of the NADPH subunits, NOX-2 (gp91^phox), p47^phox, NOX-4 and RAC-1 in left ventricular homogenates, along with the expression of heme oxygenase (HO) and glutathione peroxidase (GPX), key defence mechanism against oxidative stress, were further assessed by real-time quantitative RT-PCR, as detailed above.

Structure (SMILES): Cc1sc[n+](CC(=O)c2ccccc2)c1C.[Cl-] [alagebrium chloride, 3-(2-phenyl-2-oxoethyl)-4,5-dimethylthiazolium chloride]
- Gene expression relative to 18S (AU/18s) (RAGE KO mice, RAC-1 expression): 0.7 ± 0.1 AU/18s
- Gene expression relative to 18S (AU/18s) (RAGE KO mice, gp91phox expression): 0.9 ± 0.1 AU/18s
- Gene expression relative to 18S (AU/18s) (RAGE KO mice, heme oxygenase (HO-1) expression): not influenced
- Gene expression relative to 18S (AU/18s) (Wild-type mice, RAC-1 expression): 1.0 ± 0.2 AU/18s
- Gene expression relative to 18S (AU/18s) (Wild-type mice, heme oxygenase (HO-1) expression): not influenced
- Gene expression relative to 18S (AU/18s) (Wild-type mice, listed as AL, gp91phox gene expression): 0.8 ± 0.2 AU/18s
- Gene expression relative to 18S (AU/18s) (Wild-type mice, listed as AL, heme oxygenase gene expression): 0.1 ± 0.1 AU/18s
